Data on 1 molecule can be found in patent US20190185532A1 (UNIVERSITY OF BIRMINGHAM, published 2019).

In this test the target is T1, MMRN2^FL (full-length human MMRN2 with a polyhistidine (His) tag) (human, UniProt Q9H8L6 23-949).
T1 construct: mature; Used as lysate of transfected HEK293T cells; Forms large multimers under non-reduced conditions; also called MMRN2 full-length; MMRN2 FL with His tag; not shown: C-terminal BirA and His tags of vector pHL-Avitag3
T1 sequence (looked up): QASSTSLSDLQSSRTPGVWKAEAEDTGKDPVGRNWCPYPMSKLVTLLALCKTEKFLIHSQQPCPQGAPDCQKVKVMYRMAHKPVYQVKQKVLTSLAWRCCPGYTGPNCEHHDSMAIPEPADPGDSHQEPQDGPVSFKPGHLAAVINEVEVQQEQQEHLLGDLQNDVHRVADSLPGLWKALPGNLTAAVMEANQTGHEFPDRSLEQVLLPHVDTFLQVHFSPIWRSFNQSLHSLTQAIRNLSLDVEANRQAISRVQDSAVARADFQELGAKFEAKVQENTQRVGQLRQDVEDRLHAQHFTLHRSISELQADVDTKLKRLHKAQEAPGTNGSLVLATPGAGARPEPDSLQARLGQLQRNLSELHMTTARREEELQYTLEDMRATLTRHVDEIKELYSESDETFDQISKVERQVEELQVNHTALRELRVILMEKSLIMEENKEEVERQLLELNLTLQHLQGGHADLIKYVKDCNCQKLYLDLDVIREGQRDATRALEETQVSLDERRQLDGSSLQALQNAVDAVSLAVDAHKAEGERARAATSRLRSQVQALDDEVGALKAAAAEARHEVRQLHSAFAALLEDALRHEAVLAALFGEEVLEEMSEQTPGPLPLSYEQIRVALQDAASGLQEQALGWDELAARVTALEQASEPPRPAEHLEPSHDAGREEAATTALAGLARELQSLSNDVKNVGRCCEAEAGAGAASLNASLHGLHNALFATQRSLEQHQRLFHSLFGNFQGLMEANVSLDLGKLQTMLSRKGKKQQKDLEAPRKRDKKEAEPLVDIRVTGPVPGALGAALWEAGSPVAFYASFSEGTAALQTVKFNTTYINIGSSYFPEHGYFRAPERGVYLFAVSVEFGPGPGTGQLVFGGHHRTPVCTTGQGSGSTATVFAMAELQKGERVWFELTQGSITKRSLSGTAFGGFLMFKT
In words: far western blot, non-reduced; HEK293T lysates of GFP-tagged proteins probed with MMRN2^FL-His lysate. The source says: We previously identified MMRN2 as a binding partner of CLEC14A, one of the members of the C-type lectin domain (CTLD) group 14 family (4). To test whether any of the other CTLD group 14 family members also bind to MMRN2, we employed far western blotting using MMRN2 protein probe as a surrogate for a primary antibody in a standard western blot set up. The CTLD group 14 family members CLEC14A, CD93 and thrombomodulin were all constructed with a C-terminal green fluorescent protein (GFP) tag (FIG. 1A). Constructs were transfected into HEK293T cells and lysates were separated by SDS-PAGE under non-reducing conditions to keep disulphide bonds intact, then transferred to PVDF membranes and blotted using HEK293T lysates overexpressing full-length human MMRN2 with a polyhistidine (His) tag. MMRN2 protein binding was detected by staining with an anti-His tag antibody.
Whole cell protein lysates were made by incubating with lysis buffer (1% (v/v) NP40, 10 mM Tris pH7.5, 150 mM NaCl and 1 mM EDTA) and pelleting insoluble material. Standard protocols for western blotting were used. […] The epitope tag of each probed protein was detected with secondary antibody incubation (anti-His or anti-Fc HRP conjugate) and then tertiary anti-mouse HRP for the case of anti-His.

B1: thrombomodulin (human, C-terminal GFP tag, expressed in HEK293T) (receptor)
chain: [about 500 residues not listed]GLLIGISIASLCLVVALLALLCHLRKKQGAARAKMEYKCAAPSKEVVLQHVRTERTPQRL
notes: whole, on cells; On cells in flow cytometry; as non-reduced HEK293T lysate in far western blots; also called THBD; THBD wt; not shown: C-terminal green fluorescent protein (GFP) tag from vector pEGFP-N1
Take B1: the binding result is “no binding (tested: diluted 1:50)”.
